According to PubChem BioAssay AID1768 (National Center for Advancing Translational Sciences (NCATS), 2009):
Screen size: about 270,000 compounds; about 620 (0.23%) were called active. Inconclusive results, whose numbers are uncertain, are shown with a selection of clear calls. The call rests on the fitted dose curve; in most records, active means well fitted inhibition curve with a large enough effect in the polarisation, with a control signal flat (not every such curve was filed as active); inconclusive means small, poorly fitted or top-dose-only effect, or effect the other way, or a change in a side signal; inactive means no such curve, though single readings can be large or run the other way; the % refers to the polarisation. Potencies of inconclusive entries are doubtful fits and often do not repeat. “Side channel” marks fits to a control or component signal instead of the main read-out.

target: Menin (Homo sapiens) (UniProt O00255); assay: qHTS Assay for Inhibitors Targeting the Menin-MLL Interaction in MLL Related Leukemias: Competition With Texas Red Labeled MLL-derived Mutant Peptide; conditions: fluorescence polarization; FP activity change, negative = inhibition: at 61.6 µM (top of the series); on FP activity change, negative = inhibition: % of control where 0% means no effect
Sequence of UniProt O00255 (O00255 whole entry, looked up): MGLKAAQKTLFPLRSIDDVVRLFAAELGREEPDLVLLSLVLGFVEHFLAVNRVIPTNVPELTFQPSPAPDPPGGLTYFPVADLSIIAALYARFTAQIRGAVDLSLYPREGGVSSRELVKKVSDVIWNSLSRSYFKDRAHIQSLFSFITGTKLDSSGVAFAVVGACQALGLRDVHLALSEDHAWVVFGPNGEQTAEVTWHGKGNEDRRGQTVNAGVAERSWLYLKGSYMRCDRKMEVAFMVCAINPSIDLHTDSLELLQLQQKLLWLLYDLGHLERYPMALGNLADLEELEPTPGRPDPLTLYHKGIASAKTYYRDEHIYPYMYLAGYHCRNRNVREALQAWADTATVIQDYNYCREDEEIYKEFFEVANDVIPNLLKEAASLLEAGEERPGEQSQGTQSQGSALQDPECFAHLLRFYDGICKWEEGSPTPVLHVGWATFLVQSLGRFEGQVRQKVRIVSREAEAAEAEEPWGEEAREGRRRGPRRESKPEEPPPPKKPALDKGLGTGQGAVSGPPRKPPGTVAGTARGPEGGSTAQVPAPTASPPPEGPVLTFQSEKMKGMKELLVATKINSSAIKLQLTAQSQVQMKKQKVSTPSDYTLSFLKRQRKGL
Potency means the concentration at half of the fitted maximal effect; tags describe the fitted curve by direction and shape or compound fluorescence and quenching.

Question: How did the Potency turn out when `CCS(=O)(=O)N1Cc2ccccc2CC1C(=O)Nc1nnc(SCc2ccc(F)cc2)s1` (stereo not given) was run?
Answer: inconclusive: 3.16 µM [quencher, side channel, single point]

Question: Which Potency does the source give for `O=C(CSc1nc(O)c(Cc2ccccc2)c(=O)[nH]1)Nc1nnc(SCc2ccccc2)s1` here?
Answer: inconclusive: 31.6 µM [quencher, side channel, single point]

Question: `CCNc1ncc2nc(-c3ccc(Cl)cc3)c(=O)n(CCC#N)c2n1` was tested. Which “FP activity change, negative = inhibition” value did it give?
Answer: inactive: 1.23%

Question: `COc1cccc(NC(=O)C2CCCN(S(=O)(=O)c3ccc(-n4cnnn4)cc3)C2)c1` (stereo not given) was tested. Which Potency did it give?
Answer: inconclusive: 28.2 µM [quencher, side channel, single point]

Question: `Cc1ccc2c(COC(=O)c3ccc(NC(=O)CC#N)cc3)cc(=O)oc2c1C` was tested. Which Potency did it give?
Answer: inconclusive: 28.2 µM [fluorescent, side channel, single point]

Question: How did the Potency turn out when `Cc1ccc(C(=O)NCCSc2ccccc2)cc1S(=O)(=O)Nc1ccccc1` was run?
Answer: inconclusive: 28.2 µM [quencher, side channel, single point]

Question: With `O=C(N/N=C/c1ccccc1F)c1ccccc1OCc1ccccc1` as the molecule, how does the Potency read?
Answer: inconclusive: 3.55 µM [fluorescent, side channel, partial curve, poor fit]

Question: How did the Potency turn out when `Fc1ccc(-c2csc(Nc3ccccn3)n2)cc1` was run?
Answer: inconclusive: 28.2 µM [quencher, side channel, partial curve]

Question: For `CCCC(=O)Nc1ccc(C(=O)N/N=C/c2ccc([N+](=O)[O-])o2)cc1`, which Potency is on record?
Answer: inconclusive: 15.8 µM [quencher, side channel, single point]

Question: For `O=c1c(-c2ccccc2)nc2cnc(N3CCOCC3)nc2n1C1CC1`, which Potency is on record?
Answer: inconclusive: 8.91 µM [inhibitor, partial curve]

Question: `C/C(=N\NS(=O)(=O)c1ccc(C)cc1)c1ccc(Br)s1` was tested. Which Potency did it give?
Answer: inconclusive: 39.8 µM [quencher, side channel, single point]

Question: Which Potency does the source give for `CCOc1ccc2nc(N3CCOCC3)nc(C)c2c1` here?
Answer: inconclusive: 39.8 µM [inhibitor, single point]

Question: How did the Potency turn out when `O=[N+]([O-])c1ccc(NC(=S)N2CCc3ccccc3C2)cc1` was run?
Answer: inconclusive: 31.6 µM [quencher, side channel, single point]

Question: For `CN1C(=O)C(N=Nc2ccccc2C(=O)O)N(C)C1=S` (stereo not given), which Potency is on record?
Answer: inconclusive: 28.2 µM [quencher, side channel, single point]

Question: For `COc1cc2c(cc1OC)C(c1cc3ccc(C)cc3[nH]c1=O)N(C(=O)c1ccco1)CC2` (stereo not given), which Potency is on record?
Answer: inconclusive: 39.8 µM [inhibitor, single point]
